The source of these data is US20100291088A1 (published 2010).

Experiment [1] has as its target T1, (4C/A)-huIL-18 (human, UniProt Q14116 37-193). The experiment is described as follows: cell-based or functional assay.
In experiment [2] the target is T1, (4C/A)-huIL-18. The experiment is described as follows: cell-based or functional assay. This is another data set of the same source.

B1: 2.5(E)mg1 (antibody, human IgG1, kappa)
heavy: ZVQLVQSGTEVKKPGESLKISCKGSGYTVTSYWIGWVRQMPGKGLEWMGFIYPGDSETRYSPTFQGQVTISADKSFNTAFLQWSSLKASDTAMYYCARVGSGWYPYTFDIWGQGTMVTVSSASTKGPSVFPLAPSSKSTSGGTAALGCLVKDYFPEPVTVSWNSGALTSGVHTFPAVLQSSGLYSLSSVVTVPSSSLGTQTYICNVNHKPSNTKVDKKV[letters of human IgG1 Fc with changes not shown]
light: EIVMTQSPATLSVSPGERATLSCRASESISSNLAWYQQKPGQAPRLFIYTASTRATDIPARFSGSGSGTEFTLTISSLQSEDFAVYYCQQYNNWPSITFGQGTRLEIKRTVAAPSVFIFPPSDEQLKSGTASVVCLLNNFYPREAKVQWKVDNALQSGNSQESVTEQDSKDSTYSLSSTLTLSKADYEKHKVYACEVTHQGLSSPVTKSFNRGEC
On to B1, for which the “KG-1 neutralization potency in vitro (IC50, nM)” value in experiment [1] was found to be 0.2 nM. Also, in experiment [2], the “KG-1 Bioassay IC50” value stood at 0.2 nM.

B2: 2.5(E)wtg1 (antibody, human IgG1, kappa)
heavy: ZVQLVQSGTEVKKPGESLKISCKGSGYTVTSYWIGWVRQMPGKGLEWMGFIYPGDSETRYSPTFQGQVTISADKSFNTAFLQWSSLKASDTAMYYCARVGSGWYPYTFDIWGQGTMVTVSS[letters of human IgG1 constant region not shown]
light: B1 light
For the molecule B2, the “KG-1 Bioassay IC50” value in experiment [2] turned out to be 0.4 nM.
